In all, about 43,000 compounds went through this assay and about 200 (0.47%) were called active. Another 12% or so got no clear call; they are omitted. Calls follow the shape of the dose curve; as a rule, active = well fitted cell-killing curve with a large enough effect; inconclusive = small, poorly fitted or top-dose-only effect, or effect the other way; inactive = flat fitted curve, though single readings scatter. The list shows a part of the results.
assay: Cell viability qHTS assay in S16 Pmp22-F2sN cells; settings: S16 Pmp22-F2sN Schwann cells viability, CellTiter-Glo, 24 h; series mostly up to 57.5 µM; activity change, negative = cytotoxicity: at the top concentration; also: nearly all actives have a fitted effect of over 65% in size
In short: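 Used to flag compounds lowering reporter output through toxicity, this quantitative HTS measures ATP-based CellTiter-Glo luminescence in S16 Pmp22-F2sN Schwann cells after 24 h compound exposure at 37C.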
% is scaled to controls: 0 for no effect and ±100 for the full control effect.

Row | Compound | activity change, negative = cytotoxicity
1 | Cc1ccc(Cl)cc1NC(=O)/C(C#N)=C\c1cn(Cc2ccc(F)cc2)c2ccccc12 | inactive: 2.19%
2 | COc1ccc(C(=O)Nc2ccc(C(=O)OCc3cc(=O)n4nc(C(C)C)sc4n3)cc2)cc1 | inactive: 3.95%
3 | Cc1ccccc1C(=O)Nc1ccc2nc(SCCOc3ccccc3)sc2c1 | inactive: 17.7%
4 | CCOC(=O)c1c(S(=O)(=O)NCC(=O)NCc2ccc(C)cc2)c(C)n(C)c1C | inactive: -2.62%
5 | Fc1ccc(CNc2cc(-c3ccccc3)nc3nncn23)cc1 | inactive: -22.1%
6 | COc1ccc(OC)c(NC(=O)C(CCSC)NS(=O)(=O)c2cccs2)c1 (stereo not drawn) | inactive: 17.7%
7 | COc1ccc(-c2nc(SCC(=O)N3CCC(C)CC3)n[nH]2)cc1 | inactive: -4.57%
8 | Nc1c(C(=O)Nc2ccc(Cl)cc2F)sc2nc(-c3cccs3)ccc12 | inactive: 4.42%
9 | O=C(NCc1ccc(F)cc1)c1cc2c(s1)-c1ccccc1SC2 | inactive: 24.9%
10 | O=C(CCCn1c(=O)c2ccccc2n(CC(=O)Nc2ccc(F)cc2F)c1=O)NCc1ccccc1Cl | inactive: 13.4%
11 | COc1cc2c(=O)n(CCC(=O)NCC3CCCO3)c(=O)n(CC(=O)Nc3c(C)cccc3C)c2cc1OC (stereo not drawn) | inactive: 7.32%
12 | CCCCOC(=O)c1ccc(NC(=O)/C(C#N)=C/c2ccc(-c3ccccc3)o2)cc1 | inactive: 4.77%
13 | COc1cccc(CCNc2ncnc3c2nnn3C)c1 | inactive: -10.8%
14 | Cc1ccc(N(CC(=O)Nc2ccc(Br)c(C)c2)S(=O)(=O)c2cccs2)cc1 | inactive: -3.26%
15 | CN(C)c1ccc(CNC(=O)C(Cc2ccccc2)NS(=O)(=O)c2ccc3c(c2)oc(=O)n3C)cc1 (stereo not drawn) | inactive: -0.201%
16 | CC(=O)c1ccc(NC(=O)CSc2ccc3nc(-c4ccccc4)cn3n2)cc1 | inactive: 5.45%
17 | Cc1ccc(-c2cc(C(=O)N3CCN(S(=O)(=O)c4ccc(Br)s4)CC3)[nH]n2)c(C)c1 | inactive: 8.53%
18 | CCOc1ccc(CCNC(=O)C2Cc3ccccc3N2C(=O)CC)cc1OCC (stereo not drawn) | inactive: 22.4%
19 | Cc1ccccc1Oc1nc2c(c(=O)n(C)c(=O)n2C)n1Cc1ccc(Br)cc1 | inactive: 6.15%
20 | Cc1ccc2c(c1)nc(SCC(O)c1ccc(Br)cc1)n2C (stereo not drawn) | inactive: 6.82%
21 | COC(=O)c1ccc(C(=O)OC)c(NC(=O)c2c(-c3ccccc3)c(-c3ccccc3)nn(C)c2=O)c1 | inactive: 8.24%
22 | COc1ccc(N2CCN(Cc3nc4c(c(=O)[nH]c(=O)n4C)n3Cc3ccccc3)CC2)cc1 | inactive: 9.28%
23 | Cn1c(=O)c2sccc2n2c(CCC(=O)NCc3ccccc3)nnc12 | inactive: 10.8%
24 | CC(NC(=O)CSc1n[nH]c(-c2ccccc2)n1)c1nc2ccccc2n1C (stereo not drawn) | inactive: 6.86%

Row | Compound | activity change, negative = cytotoxicity
25 | Cc1ccc(S(=O)Cc2nc(-c3ccc(C(=O)NC(C)c4ccccc4)cc3)oc2C)cc1 (stereo not drawn) | inactive: 0.749%
26 | CCCCc1ccc(Nc2ncnc3c2cnn3-c2ccc(C)cc2)cc1 | inactive: 17.6%
27 | CCC1CCCCN1C(=O)Cn1c(=O)n(CC2CCC(C(=O)NC)CC2)c(=O)c2sccc21 (stereo not drawn) | inactive: 10.6%
28 | O=C(Nc1ccc(OC(F)(F)F)cc1)NC1COc2ccccc2C1 (stereo not drawn) | inactive: 10.6%
29 | COc1ccc(C2CC(=O)N(CC(=O)Nc3ccc(C(F)(F)F)cc3)c3ccccc3S2)cc1 (stereo not drawn) | inactive: 4.44%
30 | COc1ccc(C(=O)Nc2ccc3nc(SCC(=O)N4CCOCC4)sc3c2)cc1 | inactive: 8.15%
31 | COC(=O)c1ccc(OC)c(Cn2c(=O)n(-c3ccc(C)cc3)c(=O)c3c2cnn3C)c1 | inactive: 24.8%
32 | Cc1cccc(C)c1NC(=O)CN(C)S(=O)(=O)c1ccc2c(c1)n(C)c(=O)c(=O)n2C | inactive: -8.71%
33 | CCc1ccc(OCC(=O)NCC(c2ccc(OC)cc2)N2CCOCC2)cc1 (stereo not drawn) | inactive: 4.21%
34 | CCSc1nc(=O)c2c(n1C)NC(=O)CC2c1ccc(O)cc1OC (stereo not drawn) | inactive: -0.679%
35 | COc1ccc(-n2c(=O)c3sc4ccccc4c3n(Cc3ccccc3)c2=O)cc1 | inactive: 6.05%
36 | Cc1cccc(C(=O)N(Cc2nc(-c3ccc(Cl)cc3)no2)C(C)C)c1 | inactive: 0.492%
37 | CC(=O)c1cccc(NC(=O)Cn2c(C)c3cnn(-c4ccccc4)c(=O)c3c2C)c1 | inactive: -15.5%
38 | CCN(CC)CCNC(=O)c1ccc2c(c1)N(Cc1ccccc1)C(=O)c1ccccc1S2=O (stereo not drawn) | inactive: -3.86%
39 | Cc1ccc2c(CNC3CCC(C)CC3)c(C(=O)O)n(Cc3cccc(F)c3)c2c1 (stereo not drawn) | inactive: 0.311%
40 | COc1cccc(CNC(=O)c2c3c(nc4ccccc24)C(=O)N(C2CCCCC2)C3)c1 | inactive: -0.135%
41 | CCc1nn(CC(=O)NC2CC2)c(=O)c2cc3ccccc3n12 | inactive: 7.5%
42 | O=C(Cn1c(=O)nc(-c2ccccc2)c2cc(Cl)ccc21)NCCCc1ccccc1 | inactive: 25.8%
43 | Cc1sc(NC(=O)COc2ccc(C(C)(C)C)cc2)c(C(=O)OC(C)C)c1C | inactive: 1.5%
44 | Cc1cc(-c2nc3ccccc3s2)ccc1NC(=O)c1cc(Cl)ccc1Cl | inactive: -17.6%
45 | Cc1ccc(-c2noc(C3CC(=O)N(c4ccc5c(c4)OCCO5)C3)n2)cc1 (stereo not drawn) | inactive: 1.64%
46 | COc1ccc(CNC(=O)C2CCN(S(=O)(=O)c3cn(C)cn3)CC2)cc1 | inactive: 1.11%
47 | COc1ccc(NC(=O)N(Cc2ccco2)C2CCN(C(C)=O)CC2)c(OC)c1 | inactive: 11.1%
48 | CCn1cc(C(=O)N2CCN(c3ccccc3)CC2)c(=O)c2cc(S(=O)(=O)N3CCC(C)CC3)ccc21 | inactive: -3.36%

Source: PubChem BioAssay AID1508642 (National Center for Advancing Translational Sciences (NCATS), 2021)
